Measured values from the supplement of paper PMC11876631.
± gives the standard deviation of the averaged measurements. Laboratory Escherichia coli strains with one amino-acid change in an essential protein, pooled on minimal glucose agar with carbenicillin or gentamicin at twice the control MIC (plus kanamycin and chloramphenicol for the plasmids), 48 h. Fold change of barcode share against drug-free plates; higher = less susceptible. Active = above 20 in both replicates (the paper's putatively resistant). '<' = one read or none on drug, '>' = one read or none on a drug-free plate. Shares are relative, so most strains fall below 1 when a few take over. Listed are strains with at least 15 reads on both drug-free plates, and hits; most hits rest on fewer reference reads. Replicate rank correlation about 0.5. Edits are read from barcodes.

Biological target: Escherichia coli (laboratory strain)
Assay: barcode share on antibiotic plates over drug-free plates; higher = less susceptible
Procedure: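 A pool of E. coli strains, each edited to carry one amino-acid change in an essential protein, was grown for 48 h on minimal glucose agar with or without antibiotic; strain barcodes were sequenced; mean of two replicates.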

[1] = antibiotic: carbenicillin, 2× MIC (3.1 µg/mL)
[2] = antibiotic: gentamicin, 2× MIC (MIC 0.45 µg/mL)

Protein	fold change of barcode share [1]	fold change of barcode share [2]
hisA I208P (protein) MIIPALDLIDGTVVRLHQGDYGKQRDYGNDPLPRLQDYAAQGAEVLHLVDLTGAKDPAKRQIPLIKTLVAGVNVPVQVGGGVRSEEDVAALLEAGVARVVVGSTAVKSQDMVKGWFERFGADALVLALDVRIDEQGNKQVAVSGWQENSGVSLEQLVETYLPVGLKHVLCTDISRDGTLAGSNVSLYEEVCARYPQVAFQSSGGIGDPDDVAALRGTGVRGVIVGRALLEGKFTVKEAIACWQNA	0.951 ± 0.7	< 0.015
hisA V211A (protein) MIIPALDLIDGTVVRLHQGDYGKQRDYGNDPLPRLQDYAAQGAEVLHLVDLTGAKDPAKRQIPLIKTLVAGVNVPVQVGGGVRSEEDVAALLEAGVARVVVGSTAVKSQDMVKGWFERFGADALVLALDVRIDEQGNKQVAVSGWQENSGVSLEQLVETYLPVGLKHVLCTDISRDGTLAGSNVSLYEEVCARYPQVAFQSSGGIGDIDDAAALRGTGVRGVIVGRALLEGKFTVKEAIACWQNA	2.51 ± 0.8	0.0464 ± 0.0072
argH F259A (protein) MALWGGRFTQAADQRFKQFNDSLRFDYRLAEQDIVGSVAWSKALVTVGVLTAEEQAQLEEALNVLLEDVRARPQQILESDAEDIHSWVEGKLIDKVGQLGKKLHTGRSRNDQVATDLKLWCKDTVSELLTANRQLQSALVETAQNNQDAVMPGYTHLQRAQPVTFAHWCLAYVEMLARDESRLQDALKRLDVSPLGCGALAGTAYEIDREQLAGWLGFASATRNSLDSVSDRDHVLELLSAAAIGMVHLSRFAEDLIFANTGEAGFVELSDRVTSGSSLMPQKKNPDALELIRGKCGRVQGALTGMMMTLKGLPLAYNKDMQEDKEGLFDALDTWLDCLHMAALVLDGIQVKRPRCQEAAQQGYANATELADYLVAKGVPFREAHHIVGEAVVEAIRQGKPLEDLPLSELQKFSQVIDEDVYPILSLQSCLDKRAAKGGVSPQQVAQAIAFAQARLG	4.62 ± 6	< 0.0208
hisF V127Q (protein) MLAKRIIPCLDVRDGQVVKGVQFRNHEIIGDIVPLAKRYAEEGADELVFYDITASSDGRVVDKSWVSRVAEVIDIPFCVAGGIKSLEDAAKILSFGADKISINSPALADPTLITRLADRFGVQCIVQGIDTWYDAETGKYHVNQYTGDESRTRVTQWETLDWVQEVQKRGAGEIVLNMMNQDGVRNGYDLEQLKKVREVCHVPLIASGGAGTMEHFLEAFRDADVDGALAASVFHKQIINIGELKAYLATQGVEIRIC	0.628 ± 0.03	0.0199 ± 0.0069
hisF V127D (protein) MLAKRIIPCLDVRDGQVVKGVQFRNHEIIGDIVPLAKRYAEEGADELVFYDITASSDGRVVDKSWVSRVAEVIDIPFCVAGGIKSLEDAAKILSFGADKISINSPALADPTLITRLADRFGVQCIVDGIDTWYDAETGKYHVNQYTGDESRTRVTQWETLDWVQEVQKRGAGEIVLNMMNQDGVRNGYDLEQLKKVREVCHVPLIASGGAGTMEHFLEAFRDADVDGALAASVFHKQIINIGELKAYLATQGVEIRIC	0.607 ± 0.23	–
hisF V127P (protein) MLAKRIIPCLDVRDGQVVKGVQFRNHEIIGDIVPLAKRYAEEGADELVFYDITASSDGRVVDKSWVSRVAEVIDIPFCVAGGIKSLEDAAKILSFGADKISINSPALADPTLITRLADRFGVQCIVPGIDTWYDAETGKYHVNQYTGDESRTRVTQWETLDWVQEVQKRGAGEIVLNMMNQDGVRNGYDLEQLKKVREVCHVPLIASGGAGTMEHFLEAFRDADVDGALAASVFHKQIINIGELKAYLATQGVEIRIC	> 109 [active]	–
hisF I125A (protein) MLAKRIIPCLDVRDGQVVKGVQFRNHEIIGDIVPLAKRYAEEGADELVFYDITASSDGRVVDKSWVSRVAEVIDIPFCVAGGIKSLEDAAKILSFGADKISINSPALADPTLITRLADRFGVQCAVVGIDTWYDAETGKYHVNQYTGDESRTRVTQWETLDWVQEVQKRGAGEIVLNMMNQDGVRNGYDLEQLKKVREVCHVPLIASGGAGTMEHFLEAFRDADVDGALAASVFHKQIINIGELKAYLATQGVEIRIC	1.23 ± 0.038	< 0.0138
hisF I125Q (protein) MLAKRIIPCLDVRDGQVVKGVQFRNHEIIGDIVPLAKRYAEEGADELVFYDITASSDGRVVDKSWVSRVAEVIDIPFCVAGGIKSLEDAAKILSFGADKISINSPALADPTLITRLADRFGVQCQVVGIDTWYDAETGKYHVNQYTGDESRTRVTQWETLDWVQEVQKRGAGEIVLNMMNQDGVRNGYDLEQLKKVREVCHVPLIASGGAGTMEHFLEAFRDADVDGALAASVFHKQIINIGELKAYLATQGVEIRIC	4.7 ± 5.4	< 0.0163
